The labels stand for the following.
B1: PhoQ; a variant is named by its letters at X, in order, P23837 (parent)
chain: MKKLLRLFFPLSLRVRFLLATAAVVLVLSLAYGMVALIGYSVSFDKTTFRLLRGESNLFYTLAKWENNKLHVELPENIDKQSPTMTLIYDENGQLLWAQRDVPWLMKMIQPDWLKSNGFHEIEADVNDTSLLLSGDHSIQQQLQEVREDDDDAEMTHSVAVNVYPATSRMPKLTIVVVDTIPVELKSSYMVWSWFIYVLSANLLLVIPLLWVAAWWSLRPIEALAKEVRELEEHNRELLNPATTRELTSLVRNLNRLLKSERERYDKYRTTLTDLTHSLKTPLXXLQXXLRSLRSEKMSVSDAEPVMLEQISRISQQIGYYLHRASMRGGTLLSRELHPVAPLLDNLTSALNKVYQRKGVNISLDISPEISFVGEQNDFVEVMGNVLDNACKYCLEFVEISARQTDEHLYIVVEDDGPGIPLSKREVIFDRGQRVDTLRPGQGVGLAVAREITEQYEGKIVAGESMLGGARMEVIFGRQHSAPKDE

Some of the results follow.

Variants of B1 are the subject of this assay. Put plainly: enrichment ratio after two sorts for PhoP signalling (ratio (wild type AVST 3.29)); higher = more functional. Conditions: with PhoP (E. coli).
On to GGVN, for which the enrichment ratio was no more than 0.25.
As to PKRK, the enrichment ratio is no more than 0.25.
With FTEE the figure was no more than 0.25.
Next, KKAM: no more than 0.25; QAVP: no more than 0.25.
With DRSD the figure was no more than 0.25; with QYDM, no more than 0.25; with RRYG, no more than 0.25.
Take QESE: the enrichment ratio was no more than 0.25.
With YLNK the figure was no more than 0.25; with NRKV, no more than 0.25; with EMPC, no more than 0.25.
As for VHVW, the enrichment ratio is no more than 0.25.
As to KFWK, the enrichment ratio was no more than 0.25.
For TAPW, the enrichment ratio was no more than 0.25.
Consider QPYR, for which the enrichment ratio is no more than 0.25.
Turning to IEYH, the enrichment ratio was no more than 0.25.
In the case of TSQW, the enrichment ratio is no more than 0.25.
Turning to KKQS, the enrichment ratio is no more than 0.25.
Next, PCYM: no more than 0.25; RCTY: no more than 0.25; MLNH: no more than 0.25.
Next, ALWP: no more than 0.25.
As for SKQE, the enrichment ratio was no more than 0.25.
With VYDV the figure was no more than 0.25; with TYKK, no more than 0.25; with DNFL, no more than 0.25.
Take SMNM: the enrichment ratio is no more than 0.25.
With AMEL the figure was no more than 0.25.
Next, SKCY: 16.7.
For the variant RGDD, the enrichment ratio was no more than 0.25.
Next, QGGF: 18.4.
With QPKF the figure was no more than 0.25; with APLA, no more than 0.25; with LGNA, no more than 0.25.
On to PCYW, for which the enrichment ratio was no more than 0.25.
NHRT: the enrichment ratio is no more than 0.25.
In the case of RWIY, the enrichment ratio is no more than 0.25.
With KAIP the figure was no more than 0.25.
For the variant QFKF, the enrichment ratio is no more than 0.25.
Next, PRTG: no more than 0.25.
Turning to EMMI, the enrichment ratio was no more than 0.25.
Regarding NFSK, the enrichment ratio was no more than 0.25.
With APKP the figure was no more than 0.25; with LIDY, no more than 0.25.
For WKFH, the enrichment ratio was no more than 0.25.
With AEAM, the enrichment ratio came out at 5.95.
Next, FYMN: no more than 0.25; LTYD: no more than 0.25.
With PDYA the figure was no more than 0.25; with GPFI, no more than 0.25; with LFTI, no more than 0.25.
Next, NLVN: no more than 0.25.
As for TEQS, the enrichment ratio came to 7.71.
Take SNDN: the enrichment ratio was no more than 0.25.
Next, TTTT: 12.1; DYWM: no more than 0.25; WRMP: no more than 0.25.
Next, RHAP: no more than 0.25; FKEE: no more than 0.25; GRLI: no more than 0.25.
Take THNR: the enrichment ratio was no more than 0.25.
With GTNL the figure was no more than 0.25; with MYSS, no more than 0.25.
With RLLP the figure was no more than 0.25.
On to NFTI, for which the enrichment ratio is no more than 0.25.
On to DGII, for which the enrichment ratio was no more than 0.25.
With VNIF the figure was no more than 0.25; with FGLP, no more than 0.25.
With LGFF the figure was no more than 0.25.
With LVSC the figure was no more than 0.25.
Consider MNPV, for which the enrichment ratio is no more than 0.25.
NGHK: the enrichment ratio is no more than 0.25.
With HTKM the figure was no more than 0.25.
With TDRC the figure was no more than 0.25; with SQVF, 8.78.
Turning to LWYK, the enrichment ratio was no more than 0.25.
With KDRY the figure was no more than 0.25.
Next, ILCL: no more than 0.25; WSLK: no more than 0.25.
With TFLN the figure was no more than 0.25; with IMVY, no more than 0.25.
VNHI: the enrichment ratio is no more than 0.25.
Consider NCEP, for which the enrichment ratio was no more than 0.25.
Next, SQTQ: 11.3; LMEP: no more than 0.25.
Next, WIYF: no more than 0.25.
With IWSS the figure was no more than 0.25; with EATL, no more than 0.25; with KEAH, no more than 0.25.
As for PMMQ, the enrichment ratio was no more than 0.25.
With IRTV the figure was no more than 0.25; with FYFE, no more than 0.25; with IFYH, no more than 0.25.
As to IQYM, the enrichment ratio is no more than 0.25.
With RVNG the figure was no more than 0.25; with FVFC, no more than 0.25.
Next, HPRG: no more than 0.25; IDPW: no more than 0.25; NKHQ: no more than 0.25.
With TTEI the figure was 9.07; with PNLN, no more than 0.25; with YAFN, no more than 0.25.
Turning to PHWC, the enrichment ratio is no more than 0.25.
With DAAI, the enrichment ratio was no more than 0.25.
For WKGQ, the enrichment ratio was no more than 0.25.
Regarding HPLA, the enrichment ratio was no more than 0.25.
Next, MTVT: no more than 0.25; QMGI: no more than 0.25.
Next, EGEM: no more than 0.25.
Next, PNMD: no more than 0.25; FVTF: no more than 0.25.
As to DYDY, the enrichment ratio is no more than 0.25.
Next, LHVQ: no more than 0.25; ITDL: no more than 0.25; TNLS: 3.63.
With HYHS the figure was no more than 0.25; with DREA, no more than 0.25.
Take TEAS: the enrichment ratio came to 16.2.
With RAPM, the enrichment ratio was no more than 0.25.
RWQT: the enrichment ratio was no more than 0.25.
Regarding FFAI, the enrichment ratio is no more than 0.25.
Next, GQHS: no more than 0.25; ECIP: no more than 0.25.
With NNMC the figure was no more than 0.25.
For the variant WGIW, the enrichment ratio is no more than 0.25.
Regarding DEWK, the enrichment ratio was no more than 0.25.
For HPAD, the enrichment ratio is no more than 0.25.
With VPQI the figure was no more than 0.25.
As for AYND, the enrichment ratio was no more than 0.25.
For the variant SFCQ, the enrichment ratio is 2.09.
Next, EGCL: no more than 0.25; KGSW: no more than 0.25; MGRG: no more than 0.25.
Turning to SRCP, the enrichment ratio is no more than 0.25.
On to WRRI, for which the enrichment ratio is no more than 0.25.
Next, FPWM: no more than 0.25; SGSQ: 12.9.
As to ICCF, the enrichment ratio is no more than 0.25.
Regarding RAIW, the enrichment ratio was no more than 0.25.
Turning to WQNF, the enrichment ratio was determined as 4.13.
Next, WILS: no more than 0.25; NDDF: no more than 0.25; TNSL: 12.2.
Next, YGLM: 13; ICFG: no more than 0.25; RQSN: no more than 0.25.
YQFQ: the enrichment ratio is no more than 0.25.
Next, IQPY: no more than 0.25.
With STQG the figure was 2.47; with FFVR, no more than 0.25; with FIAY, no more than 0.25.
In the case of FPEF, the enrichment ratio was no more than 0.25.

Values taken from a collection of fitness landscapes (doi:10.1126/science.1257360).
